According to article PMC4336329 (PLoS ONE, 2015):
In all, about 310,000 compounds went through this assay and about 14,000 (4.5%) showed an effect of 50% or more. The effect is printed as a negative number. The list shows a part of the results.
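Also: peak tail current of the secondary pulse compared with the same well before compound.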

What follows are compounds tested against human ether-à-go-go-related gene (hERG) potassium channel (human, UniProt Q12809) (assay: primary screen, population patch clamp on CHO cells stably expressing hERG).
Sequence of human ether-à-go-go-related gene (hERG) potassium channel (Q12809 whole entry, looked up): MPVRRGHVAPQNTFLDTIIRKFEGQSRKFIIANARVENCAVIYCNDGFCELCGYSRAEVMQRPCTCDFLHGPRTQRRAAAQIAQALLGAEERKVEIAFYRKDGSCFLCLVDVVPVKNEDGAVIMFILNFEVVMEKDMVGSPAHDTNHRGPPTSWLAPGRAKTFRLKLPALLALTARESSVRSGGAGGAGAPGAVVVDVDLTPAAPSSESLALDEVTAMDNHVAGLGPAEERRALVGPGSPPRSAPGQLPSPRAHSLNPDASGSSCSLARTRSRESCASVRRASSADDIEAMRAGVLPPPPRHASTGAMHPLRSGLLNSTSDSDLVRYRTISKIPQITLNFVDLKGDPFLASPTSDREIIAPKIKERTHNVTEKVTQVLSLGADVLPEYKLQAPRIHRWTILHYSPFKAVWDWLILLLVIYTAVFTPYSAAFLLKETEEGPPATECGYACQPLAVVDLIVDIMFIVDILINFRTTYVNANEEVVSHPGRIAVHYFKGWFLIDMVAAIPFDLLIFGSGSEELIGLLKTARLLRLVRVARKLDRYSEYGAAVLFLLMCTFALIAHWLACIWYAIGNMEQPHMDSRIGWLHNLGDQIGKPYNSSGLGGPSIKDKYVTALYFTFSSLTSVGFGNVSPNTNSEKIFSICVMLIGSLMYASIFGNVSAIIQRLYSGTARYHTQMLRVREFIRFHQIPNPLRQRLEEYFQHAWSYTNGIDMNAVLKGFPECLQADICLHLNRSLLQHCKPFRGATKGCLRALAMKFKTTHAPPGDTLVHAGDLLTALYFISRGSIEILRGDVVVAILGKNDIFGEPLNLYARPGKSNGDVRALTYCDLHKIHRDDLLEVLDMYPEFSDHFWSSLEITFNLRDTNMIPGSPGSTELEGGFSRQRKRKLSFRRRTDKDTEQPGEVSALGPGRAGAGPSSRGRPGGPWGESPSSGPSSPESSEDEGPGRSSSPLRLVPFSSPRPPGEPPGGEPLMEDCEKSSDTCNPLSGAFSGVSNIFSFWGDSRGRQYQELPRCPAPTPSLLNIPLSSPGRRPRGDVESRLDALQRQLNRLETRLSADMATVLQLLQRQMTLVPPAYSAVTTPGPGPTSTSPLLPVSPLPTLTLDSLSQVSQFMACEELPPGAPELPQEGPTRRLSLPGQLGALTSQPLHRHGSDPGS
With `CC(=O)CC1(O)C(=O)N(Cc2ccccc2)c2ccccc21` (centres unmarked) the “hERG current change (%, negative = inhibition) at 10uM” value was -1.7%. With `COc1ccccc1CNC(=O)COc1cccnc1[N+](=O)[O-]` the “hERG current change (%, negative = inhibition) at 10uM” value was -43.6%. For `CC1(C)NC(C(=O)O)Cc2c1[nH]c1ccccc21` (centres unmarked), the “hERG current change (%, negative = inhibition) at 10uM” value was 3.65%. For `COc1cccc(-c2nn3c(-c4cccc(C)c4)nnc3s2)c1`, the “hERG current change (%, negative = inhibition) at 10uM” value was 17.5%. With `Cn1cnnc1SCC(=O)NC1CCCN(Cc2ccccc2F)C1` (centres unmarked) the “hERG current change (%, negative = inhibition) at 10uM” value was 19.7%. `O=C(C1CCCN(S(=O)(=O)c2ccccc2)C1)N1CCN(c2ccccc2)CC1` (centres unmarked) was tested, and the “hERG current change (%, negative = inhibition) at 10uM” value was -54.8%. For `COc1ccc(CNC(=O)Cn2nc(Cc3cccnc3)c3ccccc3c2=O)cc1`, the “hERG current change (%, negative = inhibition) at 10uM” value was -43.3%. For `Cc1ccnc(NC(=O)c2cnc(Cl)c(Cl)c2)c1`, the “hERG current change (%, negative = inhibition) at 10uM” value was 22.2%. In the case of `Cc1c(Nc2cc(N3CCOCC3)c3nonc3c2[N+](=O)[O-])c(=O)n(-c2ccccc2)n1C`, the “hERG current change (%, negative = inhibition) at 10uM” value is reported as 14.8%. `Cc1cc(NS(=O)(=O)c2ccc(NC(=O)CSc3nc4ncccc4[nH]3)cc2)nc(C)n1` was tested, and the “hERG current change (%, negative = inhibition) at 10uM” value was 9.89%. For `Cc1ccc(CNC(=O)C(OC(=O)c2ccco2)C(C)C)cc1` (centres unmarked), the “hERG current change (%, negative = inhibition) at 10uM” value was -12.6%. With `O=C(/C=C/c1ccccc1)OCCCCN=C1NS(=O)(=O)c2ccccc21` the “hERG current change (%, negative = inhibition) at 10uM” value was 5.03%. `O=C(N/N=C1\CC2CC=CC12)c1ccc(COc2ccccc2)cc1` (centres unmarked) was tested, and the “hERG current change (%, negative = inhibition) at 10uM” value was -6.88%. For `CC(=O)N1CCc2c(sc(NC(=O)CS(=O)(=O)c3ccc(F)cc3)c2C(N)=O)C1`, the “hERG current change (%, negative = inhibition) at 10uM” value was 15.7%. In the case of `Cc1ccc(N)cc1-n1c(C)ccc1C`, the “hERG current change (%, negative = inhibition) at 10uM” value is reported as 0.787%. `CC(=O)N1CCc2cc(S(=O)(=O)CCC(=O)NCCc3ccc(C)cc3)ccc21` was tested, and the “hERG current change (%, negative = inhibition) at 10uM” value was -1.9%. `Cc1ccc(C)c(N2C(=O)C3C4C=CC(CC4)C3C2=O)c1` (centres unmarked) was tested, and the “hERG current change (%, negative = inhibition) at 10uM” value was 11.5%. For `COc1ccc(CNc2nc(C)cc(C)c2C#N)cc1`, the “hERG current change (%, negative = inhibition) at 10uM” value was 17%. For `CN(C)Cc1c(C(=O)N/N=C/C=C/c2ccccc2)nnn1-c1nonc1N`, the “hERG current change (%, negative = inhibition) at 10uM” value was -24.9%. With `c1cncc(-c2nc(-c3cccs3)cs2)c1` the “hERG current change (%, negative = inhibition) at 10uM” value was -21.1%. `O=C(c1ccco1)N1CCCSC1=Nc1ccccc1` was tested, and the “hERG current change (%, negative = inhibition) at 10uM” value was 12%. With `COc1ccc(NC(=O)CSCc2cc(=O)n3cc(C)sc3n2)cc1` the “hERG current change (%, negative = inhibition) at 10uM” value was 10%. `O=C(COc1ccccc1)NCC(=O)N/N=C/c1ccc(O)cc1O` was tested, and the “hERG current change (%, negative = inhibition) at 10uM” value was -15.5%. With `O=C(CCCOc1ccc(Cl)cc1Cl)Nc1ccc(O)cc1C(=O)O` the “hERG current change (%, negative = inhibition) at 10uM” value was 13.8%. For `Cn1c(SCc2cccc([N+](=O)[O-])c2)nc2ccccc2c1=O`, the “hERG current change (%, negative = inhibition) at 10uM” value was 7.88%. `CC(C)c1cc(NCCCN2CCOCC2)n2c(nc3ccccc32)c1C#N` was tested, and the “hERG current change (%, negative = inhibition) at 10uM” value was -79.9%. With `CC(C)N(C(=O)COC(=O)[C@H](C)NC(N)=O)c1ccccc1` the “hERG current change (%, negative = inhibition) at 10uM” value was 9.03%. With `CCN(CC)CCn1c(SCC(=O)Nc2cccc(OC)c2)nc2c(sc3ccccc32)c1=O` the “hERG current change (%, negative = inhibition) at 10uM” value was -69.2%. For `C=CCn1c(C)cc(C(=O)Cn2nc(C(=O)O)c3ccccc3c2=O)c1C`, the “hERG current change (%, negative = inhibition) at 10uM” value was -8.69%. With `CCNC(=O)COc1ccc(OCc2ccccc2)cc1` the “hERG current change (%, negative = inhibition) at 10uM” value was -23.4%. With `COc1ccccc1NC(=O)CCSc1nnc(-c2ccc(O)cc2)o1` the “hERG current change (%, negative = inhibition) at 10uM” value was -4.08%. `CCN(CC)C(=O)CSc1nc2c(sc(=S)n2-c2ccccc2OC)c(=O)n1-c1ccccc1` was tested, and the “hERG current change (%, negative = inhibition) at 10uM” value was -4.22%. For `C(=C\c1ccncc1)/c1ccccc1`, the “hERG current change (%, negative = inhibition) at 10uM” value was -10.6%. For `Cc1ccccc1NC(=O)c1ccc(CN2CC(=O)N3CCCCC3C2=O)cc1` (centres unmarked), the “hERG current change (%, negative = inhibition) at 10uM” value was -0.861%. `CCOC(=O)c1ccc(NC(=O)COc2ccc(-n3cnnn3)cc2)cc1` was tested, and the “hERG current change (%, negative = inhibition) at 10uM” value was -19.8%. `CCC(OC(=O)c1nsc(Cl)c1Cl)C(=O)NCCc1ccccc1` (centres unmarked) was tested, and the “hERG current change (%, negative = inhibition) at 10uM” value was 16%. In the case of `O=C(Cc1n[nH]c(=O)c2ccccc12)OCC(=O)c1ccccc1`, the “hERG current change (%, negative = inhibition) at 10uM” value is reported as 10.1%. With `C#Cc1ccc([C@H]2C=C(C(=O)NCc3ccccc3)O[C@@H](OCc3ccc(CO)cc3)C2)cc1` the “hERG current change (%, negative = inhibition) at 10uM” value was 10.5%. In the case of `CC(C(=O)N1CCOCC1)N1C(=O)c2cccc3cccc(c23)C1=O` (centres unmarked), the “hERG current change (%, negative = inhibition) at 10uM” value is reported as 16.6%. With `CCC1(CC)Cc2ccccc2C2=C(C(=O)N3CCCCC3)C(=O)C(=O)N21` the “hERG current change (%, negative = inhibition) at 10uM” value was 2.82%. With `CCCN(CC(=O)Nc1ccccc1C)C(=O)C1CC(=O)N(c2ccccc2C(C)CC)C1` (centres unmarked) the “hERG current change (%, negative = inhibition) at 10uM” value was 3.95%. With `Cc1cc(C(C)(C)C)cc(C)c1COC(=O)c1cccnc1` the “hERG current change (%, negative = inhibition) at 10uM” value was -14.9%. For `Cc1ccc(-c2csc3nc4c5ccccc5c(NCCCN5CCOCC5)nn4c(=O)c23)cc1`, the “hERG current change (%, negative = inhibition) at 10uM” value was 2.7%. For `CC(c1ccccc1)n1c(-c2cccs2)nc2c(c(=O)c3ccccc3n2C)c1=O` (centres unmarked), the “hERG current change (%, negative = inhibition) at 10uM” value was -6.38%. With `Cc1ccc(S(=O)(=O)Nc2ccccc2C(=O)N2CCOCC2)cc1` the “hERG current change (%, negative = inhibition) at 10uM” value was 16.2%. For `COc1ccc(NC(=O)CN(Cc2ccccc2)S(C)(=O)=O)c(OC)c1`, the “hERG current change (%, negative = inhibition) at 10uM” value was 8.88%. `COc1ccc(-n2c(=O)c(CCC(=O)N3CCN(c4ccccc4O)CC3)nc3ccccc32)cc1` was tested, and the “hERG current change (%, negative = inhibition) at 10uM” value was -12.7%. In the case of `Cc1cc(=O)oc(C)c1C(=O)O`, the “hERG current change (%, negative = inhibition) at 10uM” value is reported as 21.5%. With `CSCc1c(C(=O)Nc2ccc(N3CCOCC3)cc2)oc2ccccc12` the “hERG current change (%, negative = inhibition) at 10uM” value was -3.24%. With `COc1cccc(Nc2nc(N)c([N+](=O)[O-])c(N3CCOCC3)n2)c1` the “hERG current change (%, negative = inhibition) at 10uM” value was -14.2%. `CCOc1ccc(CNC(=S)NCc2ccc(OCC)cc2)cc1` was tested, and the “hERG current change (%, negative = inhibition) at 10uM” value was 15.2%. In the case of `Clc1ccc(-c2csc(-c3ccno3)n2)cc1`, the “hERG current change (%, negative = inhibition) at 10uM” value is reported as 9.66%. For `Cc1nn(-c2ccccc2)c(Cl)c1/C=N/O`, the “hERG current change (%, negative = inhibition) at 10uM” value was 5.77%. In the case of `COc1cc(CNn2c(C)n[nH]c2=S)cc(Cl)c1OCC(=O)NC(C)(C)C`, the “hERG current change (%, negative = inhibition) at 10uM” value is reported as 16.5%. For `O=C(N/N=C/c1ccc([N+](=O)[O-])s1)c1cccc(Br)c1`, the “hERG current change (%, negative = inhibition) at 10uM” value was 6.39%. `Cc1sc(NC(=O)c2ccccc2)c(C(c2ccccn2)N2CCN(CCO)CC2)c1C` (centres unmarked) was tested, and the “hERG current change (%, negative = inhibition) at 10uM” value was -53.7%.
